Test results from paper PMC6919601, “Identification of Plasmodium dipeptidyl aminopeptidase allosteric inhibitors by high throughput screening” (PLoS ONE, 2019).
Values joined by “and” are separate entries in the source; they are usually repeats but may differ in a detail not shown here. Equal values may be shown once. About 230 (0.21%) of roughly 110,000 compounds showed an effect of 50% or more. Some of the results follow.

The molecules below were run against DPAP1 (Plasmodium falciparum, UniProt Q8IIJ9) (assay: primary screen, percent inhibition; read by cleavage of a fluorogenic dipeptide substrate; higher = more effect of the substance).
Sequence of DPAP1 (Q8IIJ9 whole entry, looked up): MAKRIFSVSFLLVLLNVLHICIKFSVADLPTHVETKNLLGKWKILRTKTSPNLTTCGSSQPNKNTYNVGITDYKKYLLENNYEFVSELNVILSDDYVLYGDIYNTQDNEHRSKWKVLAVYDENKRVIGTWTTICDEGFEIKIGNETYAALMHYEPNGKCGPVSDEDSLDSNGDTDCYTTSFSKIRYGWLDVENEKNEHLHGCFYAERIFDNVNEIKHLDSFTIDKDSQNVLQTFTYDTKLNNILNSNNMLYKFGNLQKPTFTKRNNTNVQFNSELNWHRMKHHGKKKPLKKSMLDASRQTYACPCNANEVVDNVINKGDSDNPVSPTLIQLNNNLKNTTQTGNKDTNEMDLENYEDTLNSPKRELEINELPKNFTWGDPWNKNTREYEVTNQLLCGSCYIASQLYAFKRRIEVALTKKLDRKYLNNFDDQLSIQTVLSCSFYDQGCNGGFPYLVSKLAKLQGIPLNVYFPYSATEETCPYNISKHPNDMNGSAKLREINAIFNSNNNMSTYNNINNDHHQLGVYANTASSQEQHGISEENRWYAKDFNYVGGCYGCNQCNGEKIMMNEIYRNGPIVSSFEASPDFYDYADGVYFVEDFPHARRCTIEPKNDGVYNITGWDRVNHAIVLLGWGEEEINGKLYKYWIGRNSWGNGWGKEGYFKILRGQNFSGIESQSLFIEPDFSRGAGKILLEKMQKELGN
Parameters: species or system P. falciparum D10 trophozoite lysates; single well
Method: HTS was performed in black 384-well plates. The first and last two columns of each plate contained our negative (DMSO) and positive (10 μM JCP410) controls, and the 20 central columns the test compounds at 10 μM. Compounds were first diluted 50-fold into assay buffer (50 mM sodium acetate, 5 mM MgCl2, 10 mM β-mercaptoethanol, and 0.1% CHAPS, pH 5.5) from a 10 mM DMSO stock plates. One microliter of this 200 μM intermediate stock plate was dispensed into the assay plate. […] After 30 min, the reaction was quenched with 20 μL of 0.5 M acetic acid, and the fluorescent intensity measured at 523 nm (λex = 492 nm) using an Analyst HT multimode plate reader (Molecular Devices).
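Note: 30 min substrate incubation versus DMSO and 10 µM JCP410 controls.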

Structure (SMILES)	% Inhibition @ 10 uM
O=C(c1ccccc1)N1CN(C2CCCCC2)Cc2c1sc1c2CCCC1	-0.446%
CCc1ccc(C2=CC(c3cccc(OC)c3)n3nnnc3N2)cc1 (stereo not drawn)	4.86%
Cc1ccc(C(=O)C2=C(O)C(=O)N(Cc3cccnc3)C2c2cccnc2)cc1 (stereo not drawn)	2.17%
CCC(C)(C)C1CCc2c(sc(NC(=O)C(C)(C)C)c2C(N)=O)C1 (stereo not drawn)	0.605%
CC1CC(C)CN(C2CC(=O)N(c3ccccc3)C2=O)C1 (stereo not drawn)	-4.4%
O=C(COc1nsnc1N1CCOCC1)NCc1ccc(F)cc1	-0.222%
Cn1c(=O)[nH]c(=O)c2c1nc(NC1CCCCC1)n2CC(O)COc1ccc(Cl)cc1 (stereo not drawn)	0.924%
CCOC(=O)c1c(NC(=O)C(F)(OC)C(F)(F)F)sc(-c2ccccc2)c1C (stereo not drawn)	2.18%
N=C(NOC(=O)C(F)(F)F)c1nonc1NC(=O)C(F)(F)F	-1.82%
O=C(Nc1cc(Cl)c(Cl)cc1Cl)c1ccc(Cl)cc1	-3.94%
Cc1ccc(C(=O)Nc2ccccc2O)cc1N1C(=O)c2ccccc2C1=O	-6.81%
COc1ccc(NCc2ccc(Cl)cc2Cl)cc1OC	2.94%
CN1CCN(c2nc(-c3ccccc3)cc(C(F)(F)F)n2)CC1	-0.503%
Nc1cc(C(=O)O)cc2c1Sc1ccccc1O2	-12.6%
COc1ccc2c(C)c(C(=O)O)oc2c1OC	-4.61%
COc1ccc2c3c(c[n+](C)c2c1)sc1ccc(F)cc13	-1.64%
Cc1nc2c(c(C)nn2C(C)(C)C)c(C)c1CCC(=O)NC(C)c1ccc2c(c1)OCCO2 (stereo not drawn)	-4.24%
O=C(CSc1nnc(COc2ccccc2Cl)o1)Nc1nc(-c2ccccc2)cs1	4.18%
CC(Oc1cccc(Cl)c1)C(=O)Nc1ccc(S(N)(=O)=O)cc1 (stereo not drawn)	0.147%
CC(C)N1C(C)CC(O)N1C(=O)c1ccncc1 (stereo not drawn)	-4.98%
CC1(C)CC(=O)c2cnn(-c3ccc(C(F)(F)F)cc3)c2C1	-2.63%
COc1ccc(C2Nc3ccccc3C(=O)N2Cc2ccccc2)c(O)c1 (stereo not drawn)	0.431%
O=C(Nc1ccccc1Br)c1ccco1	-1.86%
O=C(NCCCN1CCOCC1)C1c2ccccc2Oc2ccccc21	0.222%
Cc1c(C(=O)NCc2cccnc2)oc2ccc(S(=O)(=O)N3CCCCCC3)cc12	0.287%
COc1ccc(C(=O)N2CCN(c3ccc(F)cc3)CC2)c(OC)c1	-3.39%

Structure (SMILES)	% Inhibition @ 10 uM
COc1ccccc1CNC(=O)CSc1nc(-c2ccco2)cc(C(F)(F)F)n1	0.778%
COc1cccc(CN2CCN(Cc3ccc(C)cc3)CC2)c1OC	-8.37%
c1ccc(CC2=NCCn3cccc32)cc1	-1.82%
Cc1nnc(N2CCC(C(=O)N3CCN(C)CC3)CC2)c2nn(-c3ccc(Cl)cc3)c(C)c12	-1.77%
Cc1ccccc1NC(=O)c1cccc(N2C(=O)c3ccc(C(=O)O)cc3C2=O)c1	-1.17%
CC1(C)C(C=C(Cl)Cl)C1C(=O)NCCc1ccccc1 (stereo not drawn)	-0.615%
Cc1cccnc1NC(=O)C(CC(C)C)N1Cc2ccccc2C1=O (stereo not drawn)	-0.501%
O=P(O)(c1ccccc1)c1nccn1Cc1ccccc1	-2.15% and -1.77%
Nc1cc(-c2ccc(Cl)cc2)nn1S(=O)(=O)Cc1ccccc1	1.15%
CC(C)NS(=O)(=O)c1ccc(OCC(=O)NC(C)(C)C)cc1	-0.318%
N#C/C(=C\c1ccc(O)cc1)C(=O)NCc1cccnc1	17.3%
CCCCc1ccc(C(=O)O)c(C(=O)O)c1C	3.25%
COc1cc(CN2CCc3ccccc3C2)cc(Br)c1O	4.04%
O=C(CCc1nnc2ccc(N3CCOCC3)nn12)NCCC1=CCCCC1	3.25%
CCOC(=O)c1sc(NC(=O)COc2ccccc2OC)c(C(=O)OCC)c1C	12.3%
c1ccc2cc(N3CCCCC3)ncc2c1	0.751%
Cc1cc(=O)oc(C)c1C(=O)NCC1COc2ccccc2O1 (stereo not drawn)	-0.733%
O=C(Cn1cnc2c(nc3n2CCCCC3)c1=O)NCC1CCCO1 (stereo not drawn)	10.6%
CCOc1ccc(NC(=O)COc2ccc(OC)cc2)cc1	-4.06%
COc1cccc(C(=O)Nc2nc3ccccc3s2)c1OC	0.889%
O=C1N/C(=C/c2ccccc2Br)C(=O)N1Cc1ccc(F)cc1	-3.72%
Oc1oc(-c2cccc3ccccc23)nc1/C=N/c1nc2ccccc2s1	6.56%
COc1ccc(C(=O)Nc2sc3c(c2CN(C)C)CCCC3)cc1	-3.98%
CC1(C)CC(=O)C(C(C2=C(O)CC(C)(C)CC2=O)c2cc(Br)cc(C(C)(C)C)c2O)C(=O)C1 (stereo not drawn)	10.6%
CC(NC(=O)NCCCCCCNC(=O)NC(C)c1ccccc1)c1ccccc1 (stereo not drawn)	-1.9%
CCN(CC)C(=O)CN(c1ccc(Oc2ccccc2)cc1)S(C)(=O)=O	3.46%

Structure (SMILES)	% Inhibition @ 10 uM
COc1ccc(CN2CCC3(C=Cc4ccccc43)CC2)cc1C	-1.64%
CCOC(=O)c1cc(-c2ccc(F)cc2)n(CC(=O)NCCOC)c1C	4.61%
Cc1ccc(OCC(O)CN2CCOCC2)cc1C (stereo not drawn)	-0.414%
C=CCn1c(-c2ccccc2)cs/c1=N\c1cccc(O)c1	-6.37%
c1ccc(-c2nn3c(Cn4nnc5ccccc54)nnc3s2)cc1	4.47%
CC(C)(C)NC(=O)c1ccccc1Cl	-0.48%
Cc1cccc(N2CCN(Cc3cccc([N+](=O)[O-])c3)CC2)c1C	-3.71%
CCOC(=O)N1CCN(C(=O)C2CC(c3cn(CC)nc3C)=NO2)CC1 (stereo not drawn)	-3.08%
CCOC(=O)C1=C(c2ccccc2)Nc2ncnn2C1c1ccc(Cl)cc1Cl (stereo not drawn)	-5.01%
CCCN1CCN(C(=O)c2cc3c(-c4ccc(OC)c(OC)c4)nn(C)c3s2)CC1	-2.29%
COc1ccc(C2c3c(oc4cc(C)cc(C)c4c3=O)C(=O)N2CCO)cc1OC (stereo not drawn)	1.67%
CCOC(=O)N1CCN(C(=O)CS(=O)Cc2nc(-c3ccc(OC)cc3)oc2C)CC1 (stereo not drawn)	2.37%
Cc1ccc(C(=O)Nc2ccc(S(=O)(=O)Nc3ncccn3)cc2)cc1	-7.89%
Cc1ccc2c(S(=O)(=O)O)ccc(O)c2n1	-8.11%
COc1cccc(-c2nn(C)c3sc(C(=O)NCC4COc5ccccc5O4)cc23)c1 (stereo not drawn)	-2.29%
COc1cc(C2C(C(=O)Nc3ccccc3C)=C(C)Nc3ncnn32)cc(OC)c1OC (stereo not drawn)	-4.91%
COc1ccc2oc(=O)cc(CN3CCC(C(O)(c4ccccc4)c4ccccc4)CC3)c2c1	20.2%
Cc1cc(O)c(C(=O)/C=C/c2cccc(O)c2)c(=O)o1	2.74%
O=C(CCc1nnc2n(Cc3ccc(F)cc3)c(=O)c3ccccc3n12)NCCCN1CCOCC1	-4.21%
Cc1ccc(NC(=O)c2c(NC(=O)CCC(=O)O)sc3c2CCCC3)cc1	1.71%
O=CN1Cc2ccccc2-c2ccccc2C1	-5.11%
O=C(Cc1ccccc1)Nc1ncccc1Cl	-6.64%
COc1ccc(C(=O)Nc2nonc2-c2ccc(C)cc2)cc1	-1.07%
CCOc1ccc(C2C(=O)N(C3CCCCC3)CC(=O)N2Cc2ccc(C)cc2)cc1OC (stereo not drawn)	-0.406%
O=C(CN1C(=O)C(=O)c2ccccc21)NC1CCCCC1	-3.25%
CCOC(=O)c1[nH]c2ccc(OC)cc2c1NC(=S)N1CCN(c2ccccn2)CC1	1.02%

Structure (SMILES)	% Inhibition @ 10 uM
CN1C(=O)C(=Cc2cn(C)c3ccccc23)C(=O)N(C)C1=O	-8.57%
CC1=C(C#N)C(NC(=O)CCC2CCCCC2)(C(F)(F)F)C(=O)N1 (stereo not drawn)	0.221%
CCCc1[nH]nc2c1C(c1ccc(F)c(F)c1)C(C#N)=C(N)O2 (stereo not drawn)	-6.7%
CCn1c(C(O)c2ccccc2)nc2ccccc21 (stereo not drawn)	5.37%
O=S(=O)(NCCc1cccs1)c1ccc2ccccc2c1	0.776%
COC(=O)c1cccc(-n2c(CCC(=O)O)ccc2-c2cccs2)c1	2.32%
O=C(Nc1ccccc1NC(=O)C1CCCO1)C1CCCO1 (stereo not drawn)	-1.89%
COc1cccc(CN2CCSCC2)c1OC	1.48%
N=C1/C(=C\c2ccc(SCc3ccco3)o2)C(=O)N=C2SC=NN12	3.77%
O=C(COc1ccccc1)N1CCN(Cc2ccc(Br)cc2)CC1	1.39%
OC(CN1CCOCC1)(c1ccccc1)c1ccccn1 (stereo not drawn)	1.91%
Cc1cc(C)n2nc(NC(=O)c3cccnc3)nc2n1	-4.91%
CCCCSc1nnc2c(n1)[nH]c1c(C)cccc12	5.75%
Cc1cccc(C)c1N1C(=O)c2ccccc2C1=O	2.27%
O=C(NCc1ccc(-n2cccc2)cc1)c1ccc2c(c1)OCO2	1.32%
O=C(NCCCN1CCOCC1)c1cc2ccc3cccnc3c2[nH]1	-0.528%
Cc1ccc(-n2ncc(C(=O)N3CCC(C(N)=O)CC3)c2NC(=O)c2ccco2)cc1C	0.245%
COc1cc(C2(O)CCCCC2C)cc(OC)c1OC (stereo not drawn)	2.13%
CCOc1ccc(C2CC(c3cccs3)Nc3ncnn32)cc1OC (stereo not drawn)	-3.37%
O=C1CCCN1CCCNc1nc2ccccc2n2nnnc12	4.33%
CCCN1C(=O)c2cc(C(=O)O)ccc2C1O (stereo not drawn)	-1.03%
CC1CCN(CCNC(=O)c2nn(C)c3c2CS(=O)(=O)c2ccccc2-3)CC1	-0.495%
COc1ccc(CCN2CC34C=CC(O3)C(C(=O)NCc3ccccc3Cl)C4C2=O)cc1OC (stereo not drawn)	1.07%
CCOC(=O)C1=C(CNCCc2ccc(Cl)cc2)NC(=O)NC1c1ccccc1 (stereo not drawn)	-6.91%
